Source: a collection of fitness landscapes (doi:10.1016/j.celrep.2020.107928)
The full ranking holds about 81,000 sequences; the median of “one-hybrid fitness for binding NBS DNA” is about -0.1, and the highest 2% start at about 0.36. The list shows a part of the results.

B1: Caulobacter ParB omega fusion; a variant is named by its letters at X, in order, B8GW30 (parent)
chain: MESVVVGEPGMSEGRRGLGRGLSALLGEVDAAPAQAPGEQLGGSREAPIEILQRNPDQPRRTFREEDLEDLSNSIREKGVLQPILVRPSPDTAGEYQIVAGERAWRAAQRAGLKTVPIMVRELDDLAVLEIGIIENVQRADLNVLEEALSYKVLMEKFERTQENIAQTIGKSXSHVANXMRLLXLPDEVQSYLVSGELTAXHARAIAAAADPVALAKQIIEGGLSVRETEALARKAPNLSAGKSKGGRPPRVKDTDTQALESDLSSVLGLDVSIDHRGSTGTLTITYATLEQLDDLCNRLTRGI

Variants of: B1
Test: one-hybrid fitness for binding NBS DNA (the Noc-binding site; scaled: cognate 1, non-cognate 0); higher = stronger binding
Conditions: with NBS DNA site
How it was run: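 On M9-minus-histidine containing 0.1 mM IPTG and 5 mM 3-AT, E. coli USO cells with a HIS3 reporter, site 19 bp from the promoter, grew 48 hours at 37°C to select Caulobacter ParB libraries randomised at four specificity codons. Plasmids from before and after were Illumina-sequenced, with three replicate libraries pooled and variants under 10 reads left out. Fitness is the log change in variant-to-wild-type read ratio, rescaled against cognate and non-cognate.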

Row | Variant | one-hybrid fitness for binding NBS DNA
1 | ERIT | ≤ 0.2
2 | GYER | ≤ 0.2
3 | EAIP | ≤ 0.2
4 | HAVF | ≤ 0.2
5 | TCKI | ≤ 0.2
6 | QRVD | ≤ 0.2
7 | HDTA | ≤ 0.2
8 | SNLD | ≤ 0.2
9 | VNRR | ≤ 0.2
10 | HPVF | ≤ 0.2
11 | TRWA | ≤ 0.2
12 | CVHT | ≤ 0.2
13 | VEKL | ≤ 0.2
14 | PQTN | ≤ 0.2
15 | LMYR | ≤ 0.2
16 | IGKT | ≤ 0.2
17 | GRSL | ≤ 0.2
18 | KHLG | ≤ 0.2
19 | CPIR | ≤ 0.2
20 | PATS | ≤ 0.2
21 | WGTS | ≤ 0.2
22 | ISML | ≤ 0.2
23 | NFTC | ≤ 0.2
24 | ERDI | ≤ 0.2
25 | ARMV | ≤ 0.2
26 | TSWM | ≤ 0.2

Row | Variant | one-hybrid fitness for binding NBS DNA
27 | AWGR | ≤ 0.2
28 | GSKC | ≤ 0.2
29 | LYIP | ≤ 0.2
30 | LQKM | ≤ 0.2
31 | RGFQ | ≤ 0.2
32 | YEAC | ≤ 0.2
33 | RHYK | ≤ 0.2
34 | NNIR | ≤ 0.2
35 | ISKG | ≤ 0.2
36 | PRWE | ≤ 0.2
37 | HRWR | ≤ 0.2
38 | QPNH | ≤ 0.2
39 | KTDK | ≤ 0.2
40 | QLWS | 0.221
41 | MRLG | ≤ 0.2
42 | LTQL | ≤ 0.2
43 | CQIS | ≤ 0.2
44 | QRYW | 0.203
45 | DIQS | ≤ 0.2
46 | RNKD | ≤ 0.2
47 | DVQC | ≤ 0.2
48 | TFRH | ≤ 0.2
49 | ESKG | ≤ 0.2
50 | DYPR | ≤ 0.2
51 | PDYG | ≤ 0.2
52 | REIA | ≤ 0.2

Row | Variant | one-hybrid fitness for binding NBS DNA
53 | SWDS | ≤ 0.2
54 | FSIY | ≤ 0.2
55 | RYWM | ≤ 0.2
56 | KWHG | ≤ 0.2
57 | STYW | ≤ 0.2
58 | WQLT | ≤ 0.2
59 | DLDD | ≤ 0.2
60 | GCPF | ≤ 0.2
61 | VREG | ≤ 0.2
62 | TTGG | ≤ 0.2
63 | RETG | ≤ 0.2
64 | RSQN | ≤ 0.2
65 | QLRG | 0.252
66 | QIIT | 0.205
67 | HMWG | ≤ 0.2
68 | PYLC | ≤ 0.2
69 | QPLV | ≤ 0.2
70 | CSYD | ≤ 0.2
71 | YQWS | ≤ 0.2
72 | VRSK | ≤ 0.2
73 | PVAF | ≤ 0.2
74 | YCQR | ≤ 0.2
75 | THQS | ≤ 0.2
76 | KSIF | ≤ 0.2
77 | KNTI | ≤ 0.2
